We go through 42 compounds from ChEMBL document CHEMBL4888484, “Replenishing the malaria drug discovery pipeline: Screening and hit evaluation of the MMV Hit Generation Library 1 (HGL1) against asexual blood stage Plasmodium falciparum ,using a nano luciferase reporter read-out” (2022).

Screen size: about 150,000 compounds; about 540 (0.36%) showed an effect of 50% or more. This is one part of the list.

The subject of the assay is Plasmodium falciparum. Description: Primary screen in NF54 nanoGlo assay, in single point, at 2uM, 72h; a lower Z score goes with more inhibition. It counts as functional, Erythrocyte. The following applies: timepoint 72 hour.
As for `CCOc1ccc(S(=O)(=O)Nc2cc(OC)c3nc(NC(=O)c4ccccc4)sc3c2)cc1`, the “% Inhibition” value is listed as -17% and the Z score turned out to be 2.58.

Take `Cc1occc1CN(C)C(=O)N[C@H]1CCCS(=O)(=O)C1`: the “% Inhibition” value is recorded as -3% and the Z score was 0.47.

On to `CC(O)CNc1cc(NC2CCCC2Cc2ccccn2)ncn1` (centres undefined), for which the “% Inhibition” value is reported as 2% and the Z score is on record as -0.32.

Take `CN(C)C(=O)c1ccc(CN2CCc3c(Cl)cccc32)[nH]1`: the “% Inhibition” value is on record as -13% and the Z score is 1.48.

Consider `O=C(C#Cc1ccccc1)Nc1ccccc1-c1ccccc1`, for which the “% Inhibition” value is recorded as -27% and the Z score is 3.16.

On to `Cc1ccc(OCCN)c(C(=O)N(C)[C@@H](C)c2cc(-c3ccccc3)[nH]n2)c1`, for which the “% Inhibition” value was -8% and the Z score is listed as 1.28.

With `Cc1cnn(C2CN([C@@H](C(=O)NC3CC3)c3ccc(F)cc3)C2)c1`, the “% Inhibition” value is on record as -9% and the Z score is 1.17.

Regarding `Cc1nc(C2CC2)nc(N2CCN(C(=O)c3ccccc3Cl)CC2)c1Cc1c(F)cccc1Cl`, the “% Inhibition” value worked out at 6% and the Z score is reported as -1.01.

With `COc1ccc(C(=O)N[C@@H]2CCC[C@@H]2C(=O)N2CCN(C(C)C)CC2)cn1`, the “% Inhibition” value is -11% and the Z score was found to be 1.45.

Turning to `CCS(=O)(=O)N1CCN(CC(=O)NC2CCCCCC2)CC1`, the “% Inhibition” value is on record as -11% and the Z score is recorded as 1.28.

Consider `CC(C)c1cc(C(=O)NC2CCCC2)[nH]n1`, for which the “% Inhibition” value is -8% and the Z score amounted to 1.22.

Take `CC(C)n1ccc(C(=O)N2CC3(CCCCC3)C2)n1`: the “% Inhibition” value is -10% and the Z score was found to be 1.91.

With `O=S(=O)(CC1CCCC1)NCc1cccc2c1OCO2`, the “% Inhibition” value was -9% and the Z score was found to be 1.35.

Consider `CCOc1cc(C(=O)N2CCC(c3cccs3)CC2)cc(OCC)c1OCC`, for which the “% Inhibition” value is 1% and the Z score is -0.16.

Turning to `CC1(C)CN(C(=O)C2=CCCCO2)CC[S@+]1[O-]`, the “% Inhibition” value is -12% and the Z score is given as 1.56.

As to `Cc1ncc(S(C)(=O)=O)c(N(C)CCc2ccccn2)n1`, the “% Inhibition” value was -9% and the Z score was 1.42.

`Cn1c(CS(=O)(=O)Cc2cccc(F)c2)cc(=O)n(C)c1=O`: the “% Inhibition” value is -8% and the Z score was found to be 1.59.

For `COC[C@@](C)(O)CNC(=O)c1cccs1`, the “% Inhibition” value was -7% and the Z score is 1.06.

Regarding `CNC(=O)[C@@H]1C[C@H](NCc2cccc3ccccc23)CN1C1Cc2ccccc2C1`, the “% Inhibition” value is listed as 15% and the Z score is -2.03.

Turning to `CC[C@H](C)NS(=O)(=O)c1cccc(Br)c1`, the “% Inhibition” value was -16% and the Z score was determined as 1.85.

Regarding `COc1ccc(F)c(C(=O)N2CCCC[C@@H]2CCN2CCCC2)c1F`, the “% Inhibition” value turned out to be 2% and the Z score is recorded as -0.33.

Consider `COc1ccc(S(=O)(=O)N2CCOCC2)cc1C(=O)N1CC(=O)Nc2cc(C)cnc21`, for which the “% Inhibition” value came to 2% and the Z score was -0.37.

In the case of `Cc1ccoc1C(=O)NCC(=O)c1cccc2ccccc12`, the “% Inhibition” value is listed as -21% and the Z score was 1.77.

In the case of `Cc1cnn(-c2cccc(N3CCO[C@H](c4ccc(F)cc4)C3)n2)c1`, the “% Inhibition” value is given as -9% and the Z score stood at 1.83.

In the case of `O=C(c1cnccn1)N1CCC[C@@]2(C1)C(=O)Nc1ccccc12`, the “% Inhibition” value was 1% and the Z score is reported as -0.2.

Take `CCC(C)NC(=O)NC(Cc1ccccc1)C(N)=O` (centres undefined): the “% Inhibition” value was -4% and the Z score worked out at 0.55.

With `CCOc1ccc(NC(=O)c2nc(N3CCCC3)c3c(C)c(C)n(-c4ccccc4)c3n2)cc1`, the “% Inhibition” value is given as -1% and the Z score is 0.12.

As for `Cc1cc(COc2cccc3c2CCC3=O)on1`, the “% Inhibition” value is recorded as -13% and the Z score is 1.83.

Take `Cc1cc(NC(=O)Cc2ccccc2C)sn1`: the “% Inhibition” value is -5% and the Z score is reported as 1.08.

In the case of `CS(=O)(=O)c1ccc(Br)c(S(=O)(=O)NC[C@@H](c2ccco2)N2CCCC2)c1`, the “% Inhibition” value was -6% and the Z score is listed as 1.16.

For `CC(CCS(C)(=O)=O)NC1CCc2c(Cl)cc(Cl)cc21` (centres undefined), the “% Inhibition” value worked out at 4% and the Z score is recorded as -0.55.

In the case of `CC(C)c1ccc(N2C(=O)c3cc(-c4cccs4)nn3C[C@@]2(C)C(=O)NCc2ccc(F)cc2)cc1`, the “% Inhibition” value was -11% and the Z score came out at 1.82.

In the case of `COc1ccccc1CN1C(=O)CN(C2CCCC2)C(=O)[C@@H]1c1ccc(F)cc1`, the “% Inhibition” value is recorded as -1% and the Z score turned out to be 0.18.

In the case of `C[C@H](NC(=O)N(C)Cc1nccs1)C(F)(F)F`, the “% Inhibition” value was -5% and the Z score came out at 0.82.

`CC(C)n1cncc1CN(C)CCc1ccccn1`: the “% Inhibition” value is on record as -2% and the Z score turned out to be 0.22.

Regarding `CC1CC(C)CN(Cc2nnc(-c3cccs3)o2)C1` (centres undefined), the “% Inhibition” value was determined as 8% and the Z score is on record as -1.03.

As to `CCN(CC(=O)N1CCCCCC1)C(=O)c1ccn(C2CCCCC2)n1`, the “% Inhibition” value came out at 5% and the Z score is -0.59.

As for `Cc1oc(-c2ccc(C(=O)N3CCC(C(N)=O)CC3)cc2)nc1CN1CCN(c2ccccc2)CC1`, the “% Inhibition” value was -6% and the Z score was determined as 0.78.

In the case of `CN(CC(=O)NCCn1ccnc1-c1cnccn1)S(C)(=O)=O`, the “% Inhibition” value stood at 3% and the Z score was -0.42.

On to `Cc1nc(C2CCNCC2)cc(N2CCCCCC2)n1`, for which the “% Inhibition” value is reported as 4% and the Z score was -0.69.

Consider `COCCn1nnnc1[C@@H]1CN(CC(=O)NC2CCCCC2)CCO1`, for which the “% Inhibition” value is -16% and the Z score is on record as 2.87.

For the compound `CCOc1cc2c(cc1OCC)[C@@H]1CC(=O)N(c3ccc(C)c(C)c3)C(=O)N1CC2`, the “% Inhibition” value stood at 4% and the Z score was -0.67.
